Experimental findings from patent US20170306053A1 (Astellas, published 2017) are described below.

Read-outs that look alike come from different tables or passages of the source.

Assay [1] addresses T1, human TLR4/MD2 (on cells) (human, UniProt O00206 24-839; Q9Y6Y9 19-160).
T1 construct: whole, on cells; Cell ELISA on human TLR4/MD2 expressing HEK 293 cells; neutralisation assays on U937 cells with endogenous TLR4/MD2; also called Human TLR4/MD2 expressing HEK 293 cells; U937 cells that endogenously express the human TLR4/MD2
Nature of the assay: cell ELISA on human TLR4/MD2 expressing HEK 293 cells. The protocol: In order to evaluate the binding activity of the tandem form a (bispecific antibody format having the anti-human TLR2 antibody portion on the outer side and the anti-human TLR4 antibody portion on the inner side) prepared in Example 1 to the human TLR4, cell ELISA was performed. As reference antibodies, the tandem form c and the TLR4-IgG were used. Human TLR4/MD2 expressing HEK 293 cells were seeded at 1×10⁴ cells/well in a BD Bio Coat poly D-lysine 384 well plate (Becton Dickinson Co., Ltd.) using an α-MEM culture medium (Life Technologies Co., Ltd.) and incubated overnight. […] Twenty minutes later, 25 μL of 1 M sulfuric acid was added to stop the color reaction, and the color intensity thereof was measured with Safire II (Tecan Co., Ltd.) to evaluate the binding activity of the antibody. Using the obtained measurement results, 50% effective concentration (EC₅₀) of each antibody was calculated from 4 parameter logistic curve regression by statistical analysis software GraphPad Prism (GraphPad Software Co., Ltd.).
(ELISA stands for enzyme-linked immunosorbent assay.)

The target in assay [2] is T1, human TLR4/MD2 (on cells). Nature of the assay: cell-based or functional assay.
T1 sequence (O00206 24-839, chain 1 of 2): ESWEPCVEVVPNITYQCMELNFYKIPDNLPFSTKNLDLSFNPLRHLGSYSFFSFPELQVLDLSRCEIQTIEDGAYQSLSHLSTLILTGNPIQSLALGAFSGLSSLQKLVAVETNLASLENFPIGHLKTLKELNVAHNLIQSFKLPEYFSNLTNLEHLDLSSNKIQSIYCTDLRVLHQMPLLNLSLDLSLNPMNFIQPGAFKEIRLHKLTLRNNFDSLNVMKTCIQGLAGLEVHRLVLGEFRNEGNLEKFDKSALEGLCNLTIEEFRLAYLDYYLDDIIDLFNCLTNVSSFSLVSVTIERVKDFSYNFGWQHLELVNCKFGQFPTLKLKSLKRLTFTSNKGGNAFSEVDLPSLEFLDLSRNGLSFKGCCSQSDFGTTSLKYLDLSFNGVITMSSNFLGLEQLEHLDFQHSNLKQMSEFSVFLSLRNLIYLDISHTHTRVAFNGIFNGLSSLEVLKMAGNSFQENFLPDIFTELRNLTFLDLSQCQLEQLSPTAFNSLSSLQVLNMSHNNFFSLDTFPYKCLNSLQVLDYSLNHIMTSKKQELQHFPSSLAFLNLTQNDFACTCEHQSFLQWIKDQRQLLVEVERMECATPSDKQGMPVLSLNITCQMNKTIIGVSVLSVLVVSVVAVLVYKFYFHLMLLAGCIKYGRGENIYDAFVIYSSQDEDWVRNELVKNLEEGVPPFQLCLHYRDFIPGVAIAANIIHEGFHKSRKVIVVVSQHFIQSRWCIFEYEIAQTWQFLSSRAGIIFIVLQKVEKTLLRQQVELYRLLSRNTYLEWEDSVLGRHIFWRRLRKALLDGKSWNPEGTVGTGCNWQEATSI
T1 sequence (Q9Y6Y9 19-160, chain 2 of 2, further chain): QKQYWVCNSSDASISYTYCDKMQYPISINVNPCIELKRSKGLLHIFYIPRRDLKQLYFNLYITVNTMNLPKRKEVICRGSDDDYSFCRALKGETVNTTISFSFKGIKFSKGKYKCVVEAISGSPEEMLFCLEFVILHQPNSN
In assay [3] the target is T2, human TLR2 protein (R&D systems Co., 2616 TR/CF) (human, UniProt O60603 fragment).
T2 construct: Bought protein captured on an anti-His IgG chip; not shown: His tag implied by capture on anti-His IgG
T2 sequence (O60603 21-590): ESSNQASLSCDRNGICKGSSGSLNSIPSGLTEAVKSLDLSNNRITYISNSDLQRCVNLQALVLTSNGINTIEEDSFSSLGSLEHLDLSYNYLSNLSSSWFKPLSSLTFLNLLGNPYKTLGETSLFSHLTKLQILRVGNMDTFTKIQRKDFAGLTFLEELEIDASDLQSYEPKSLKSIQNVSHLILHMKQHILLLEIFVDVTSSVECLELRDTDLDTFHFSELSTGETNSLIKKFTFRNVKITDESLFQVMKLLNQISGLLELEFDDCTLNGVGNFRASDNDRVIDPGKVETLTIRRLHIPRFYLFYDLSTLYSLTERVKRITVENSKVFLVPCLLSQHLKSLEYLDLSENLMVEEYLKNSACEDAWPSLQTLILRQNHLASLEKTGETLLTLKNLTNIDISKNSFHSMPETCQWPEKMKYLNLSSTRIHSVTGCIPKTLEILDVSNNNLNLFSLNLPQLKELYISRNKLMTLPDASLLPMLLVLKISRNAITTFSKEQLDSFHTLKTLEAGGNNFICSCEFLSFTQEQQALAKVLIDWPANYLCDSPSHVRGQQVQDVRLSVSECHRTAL
Description: SPR (Biacore T200), human TLR2 captured on anti-His IgG, antibody as analyte, bivalent analyte model. The protocol:
In order to evaluate the binding activity of the tandem form a prepared in Example 1 to the human TLR2, SPR analysis was performed. The tandem form c and the TLR2-IgG were used as the reference antibody. For SPR analysis, Biacore T200 (GE Healthcare Japan Corporation) was used. Anti-His IgG (attached to His Capture Kit) was immobilized on CMS sensor chip using His Capture Kit (GE Healthcare Japan Corporation, 28-9950-56) and Amine Coupling Kit (GE Healthcare Japan Corporation, BR-1000-50). […] Thereafter, a solution (eight step, two fold serial dilution in the concentration range of final concentration from 100 nM to 0.781 nM) obtained by serially diluting each purified antibody (tandem form a, tandem form c, or TLR 2-IgG) with HBS-EP+buffer was added at a flow rate of 50 μL/min for 2 minutes, and the binding between the purified antibody and TLR 2 was measured. Next, HBS-EP+buffer was added at a flow rate of 50 μL/min for 5 minutes, and dissociation of the purified antibody and the human TLR2 was measured. Bivalent analyte model, Rmax was analyzed by Fit local, a binding rate constant (kₐ) and a dissociation rate constant (kd) were calculated, and kd was divided by kₐ to calculate the binding dissociation constant (KD).
A general note: In SPR one partner is held on a chip, and binding of the other changes the refractive index at the surface.

For assay [4], the target named is T1, human TLR4/MD2 (on cells). Nature of the assay: cell-based or functional assay. This is another data set of the same source.

B1: Tandem form c (bispecific antibody, human IgG1, kappa)
heavy: QVQLQESGPGLVKPSETLSLTCTVSGGSISSFYWTWIRQPPGKGLEWIGYIHYSGSTNYNPSLKSRVTISVDTSKNQFSLTLSSVTAADTAVYYCARRRSMNWFDPWGQGTLVIVSSASTKGPSVFPLAPSSKSTSGGTAALGCLVKDYFPEPVTVSWNSGALTSGVHTFPAVLQSSGLYSLSSVVTVPSSSLGTQTYICNVNHKPSNTKVDKKVEPKSCDGGGGSGGGGSGGGGSEVQLVESGGGLVQPGGSLRLSCAASGFTFDTYAMHWVRQAPGKGLEWVAGISWNSGNIGYADSVKGRFTISRDNSKNTLYLQMNSLRAEDTAVYYCAKDWDNWNLFDYWGQGTLVTVSS[letters of human IgG1 constant region omitted]
light: AIQMTQSPSSLSASVGDRVTITCRASQVIRNDLGWYQQKPGKAPKFLIYAASSLQSGVPSRFSGSGSGTDFTLTISSLQPEDFATYYCLQDYNYPLTFGGGTKVEIKRTVAAPSVFIFPPSDEQLKSGTASVVCLLNNFYPREAKVQWKVDNALQSGNSQESVTEQDSKDSTYSLSSTLTLSKADYEKHKVYACEVTHQGLSSPVTKSFNRGECGGGGSGGGGSGGGGSDIQMTQSPSSLSASVGDRVTITCRASQSISSWLAWYQQKPGKAPKLLIYKASSLESGVPSRFSGSGSGTDFTLTISSLQPEDFATYYCQQYSSYSWTFGQGTKVEIKRTVAAPSVFIFPPSDEQLKSGTASVVCLLNNFYPREAKVQWKVDNALQSGNSQESVTEQDSKDSTYSLSSTLTLSKADYEKHKVYACEVTHQGLSSPVTKSFNRGEC
notes: Same as tandem form a but the two light chains stay linked through ((Gly)4Ser)3, no protease site (uncleaved light chain polypeptide)
By EC50 is commonly meant the concentration at which the effect is half-maximal. In turn, B1 showed a 50% effective concentration (EC50) in assay [1] of 38.5 nM. In addition, in assay [2], the “IC50 (M), Neutralization Activity to Human TLR4 (LPS-induced IL-6 production inhibition, U937 cells)” value stood at 3.52e-11 M. For the same molecule, the Kd in assay [3] was 2.56 nM.

B2: Tandem form d (bispecific antibody, human IgG1, kappa)
heavy: EVQLVESGGGLVQPGGSLRLSCAASGFTFDTYAMHWVRQAPGKGLEWVAGISWNSGNIGYADSVKGRFTISRDNSKNTLYLQMNSLRAEDTAVYYCAKDWDNWNLFDYWGQGTLVTVSSASTKGPSVFPLAPSSKSTSGGTAALGCLVKDYFPEPVTVSWNSGALTSGVHTFPAVLQSSGLYSLSSVVTVPSSSLGTQTYICNVNHKPSNTKVDKKVEPKSCDGGGGSGGGGSGGGGSQVQLQESGPGLVKPSETLSLTCTVSGGSISSFYWTWIRQPPGKGLEWIGYIHYSGSTNYNPSLKSRVTISVDTSKNQFSLTLSSVTAADTAVYYCARRRSMNWFDPWGQGTLVIVSS[letters of human IgG1 constant region omitted]
light: DIQMTQSPSSLSASVGDRVTITCRASQSISSWLAWYQQKPGKAPKLLIYKASSLESGVPSRFSGSGSGTDFTLTISSLQPEDFATYYCQQYSSYSWTFGQGTKVEIKRTVAAPSVFIFPPSDEQLKSGTASVVCLLNNFYPREAKVQWKVDNALQSGNSQESVTEQDSKDSTYSLSSTLTLSKADYEKHKVYACEVTHQGLSSPVTKSFNRGECGGGGSGGGGSGGGGSAIQMTQSPSSLSASVGDRVTITCRASQVIRNDLGWYQQKPGKAPKFLIYAASSLQSGVPSRFSGSGSGTDFTLTISSLQPEDFATYYCLQDYNYPLTFGGGTKVEIKRTVAAPSVFIFPPSDEQLKSGTASVVCLLNNFYPREAKVQWKVDNALQSGNSQESVTEQDSKDSTYSLSSTLTLSKADYEKHKVYACEVTHQGLSSPVTKSFNRGEC
On to B2, for which the “IC50 (M), Neutralization Activity to Human TLR4 (LPS-induced IL-6 production inhibition, U937 cells)” value in assay [4] stood at 4.9e-12 M.
